Source: the supplement of paper PMC3334620
In all, about 33,000 sequences were measured (“E-score (-0.5 to 0.5)”: median about -0.016, highest 2% from about 0.32 on). Some of the results follow.

What follows are sequences tested against T1, Stp1 (UniProt B3LFK1) (assay: PBM E-score (8-mer binding enrichment) (E-score (-0.5 to 0.5)); higher = stronger / more preferred TF binding; most listed sequences are background and not binding sites). Settings: protein concentration: 200 nM; construct: GST-full length.
T1 sequence: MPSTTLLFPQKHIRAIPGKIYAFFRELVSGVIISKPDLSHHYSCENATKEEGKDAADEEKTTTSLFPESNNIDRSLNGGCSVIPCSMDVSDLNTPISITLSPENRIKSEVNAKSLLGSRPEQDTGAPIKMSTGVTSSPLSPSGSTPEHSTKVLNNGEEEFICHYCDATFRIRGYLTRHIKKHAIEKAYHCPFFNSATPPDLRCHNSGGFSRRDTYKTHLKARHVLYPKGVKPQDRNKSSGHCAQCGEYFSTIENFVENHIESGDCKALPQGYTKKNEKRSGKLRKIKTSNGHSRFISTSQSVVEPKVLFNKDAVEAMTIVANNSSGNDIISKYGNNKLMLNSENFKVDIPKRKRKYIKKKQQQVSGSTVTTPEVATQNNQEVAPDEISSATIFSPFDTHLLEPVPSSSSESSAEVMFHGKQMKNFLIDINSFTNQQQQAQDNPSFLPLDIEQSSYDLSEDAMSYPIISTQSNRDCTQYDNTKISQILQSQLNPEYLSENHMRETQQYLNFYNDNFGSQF
Outline: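 Full-length yeast transcription factors or their DNA-binding domains, GST-tagged and expressed with PURExpress, were applied at about 100-200 nM to universal all-10-mer Agilent arrays. These arrays had been made double-stranded by primer extension on fresh or once-stripped slides. Detection used fluorescent anti-GST, normalisation used masliner, and E-scores for ungapped eight-base words pooled with reverse complements came from the Universal PBM Analysis Suite.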

Sequence	PBM E-score
CTGAATAC	-0.00118
GGCCAAAC	-0.0831
AGTCTTGG	-0.123
CATTGGCA	-0.0344
TCCCCGCA	0.0182
CGGCTAGC	0.089
AACTCACT	-0.127
AAGGGGAT	-0.158
ATATTCGC	0.118
GTCCGAGA	0.123
CACATCGA	-0.0718
AAGAACAT	0.147
CAAAGTTG	0.124
AACCGCGG	0.18
CTGAGTTA	-0.149
TATTATGA	0.117
GCCTGCCC	-0.0443
ACTAATCC	-0.0512
TGGTACAA	-0.109
ATTGGATC	0.131
CGGGAGGC	-0.0739
CGAATTTA	0.152

Sequence	PBM E-score
GCAATGTA	-0.059
ACCCCTGC	-0.375
TAGGCATA	-0.00082
GCATTGGC	-0.0163
CACTTTGA	-0.0765
GAGGGCCC	-0.375
AAGCGCCT	0.272
AGCCGGCA	0.0341
CATGTTAG	-0.00716
ATGATTTG	-0.066
ACCAAAGC	0.0787
AGGGTGGG	-0.168
ACGCGTGC	0.191
AGAGCGAT	-0.293
ATCTCAGG	-0.0451
AGCCAACA	-0.0766
ATTTGTAG	0.0817
ATCACGTA	-0.0216
GCCACACC	0.175
CCTACAAC	0.0976
GCACGTCA	-0.017
AGCGCGAG	0.0353

Sequence	PBM E-score
AAGCCACG	0.0378
CCATACAC	0.112
AAATTGGC	0.00303
AACGGCTG	0.0994
ACAAGATG	-0.052
AAGTTAGA	0.0445
ATTCGCAG	0.113
ACAAGGAG	0.139
CGAGATAG	-0.206
CTTAAAAG	-0.174
TAATCCGA	-0.15
ACCAGAAA	-0.0473
AGGCTCAT	0.191
CCCTCCAA	-0.0894
AAGTGCAT	0.117
ACTATCTG	-0.183
ACATCGAG	-0.111
TTGTAAAA	0.131
CTTTATGC	0.17
GCGTTAAC	0.229
CCCAGTAA	-0.0921
ACCTGTAA	0.00569

Sequence	PBM E-score
TCGAAGAA	-0.209
ACAGAAAT	0.139
ACATTGCC	0.0247
CGGGAGAG	-0.283
TCGTTTCA	0.102
CGAGTCGA	-0.00477
GCCTAGAC	-0.0643
CAGTATAA	0.115
AAACAGTC	-0.0975
AGCGAATC	-0.11
GATACTCC	-0.0868
AAAGTATG	0.00188
CAAAAAAG	0.188
ACGTGGTA	-0.0691
AATAATAG	-0.025
CTCGCAAC	-0.00839
GCCTACGC	0.134
CATCGCGC	0.0387
GATACCAA	0.156
CTTGACGA	-0.206
ACGTGGTC	-0.204
AGTTAATG	-0.00872

Sequence	PBM E-score
TCTGCTAA	0.0326
ATTAATCC	-0.019
CCCACGCA	-0.0405
ATGTAGGG	-0.163
ACACTTAA	0.105
AACCCCGT	-0.0797
ACTGGATA	0.182
CTTGCTAC	-0.0318
CCGACGTC	-0.186
TAGAGATA	0.2
ACTCCTCT	-0.278
ACTGATAA	0.106
CTATTCTC	-0.0296
CATACTAA	0.125
CTGGGCAC	-0.077
AAGAACAG	-0.0163
AGTTGTAC	0.0445
CGAGAGTC	-0.325
GTGCCGAA	0.322
AGGCAGGA	-0.137
CGCAGCAG	0.0762
